# Experimental data: the supplement of paper PMC11417369
# ± gives the standard deviation of the averaged measurements. Some of the results follow.
# Test system: PfAP2-G AP2 domain (GST-tagged)
# Experiment: gcPBM binding intensity (ln(normalized median fluorescence intensity)); higher = stronger DNA binding
# How it was run: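 DNA-binding domains from P. falciparum, fused to GST and produced in E. coli, were put on an Agilent 4 × 180k double-stranded probe array for 1 h in 1× PBS holding 1% milk, 0.2 mg/ml BSA, 0.5% salmon testes DNA and 0.03% Triton X-100. Probes were primer-extended, 36 bp long and drawn from intergenic genomic regions, with negative controls included. After Alexa488 anti-GST antibody detection and a 488 nm scan, binding intensity was set as the highest Masliner-normalised natural-log median intensity across replicate spots of either probe orientation.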
row,Sequence,gcPBM binding intensity (ln)
1,GTTAAGAATATGTGTACACATATACATAAATACATA [CACACA_site4254],11.6 ± 0.95
2,TAATAATATTATTAATGTACAAATATATATACATAT [XGTACX_site7348],10.8 ± 0.37
3,TATATATATATATATTGTACCCTTTTCAAACTTCTC [XGTACX_site2812],11 ± 0.79
4,CCACAAGCAGCGGAAACATGCATATGTTGAAATAAT [TGCATGCA_site610],9.86 ± 0.042
5,TCATTTCACAAACACACACACACAATATATTTCCTT [CACACA_site3905],10.075 ± 0.007
6,AACAAAAAAAAAAAATGTACATATATATAATATATT [XGTACX_site3829],11 ± 0.59
7,TATTTTATTATACCAAGTACAAAATTTAAATATGAA [XGTACX_site5478],10.8 ± 0.64
8,TATAAGAGAATATATACACACAAAAATAAATACAGT [CACACA_site5000],10.27 ± 0.064
9,ATTTTATGTTGAAAGTGTACGTATTAATATGTAGAA [XGTACX_site245],11.6 ± 0.95
10,AATATCATCCTTTTTTTTTATAAAATTTAAAATATA [CACACA_negctrl_site844],9.95 ± 0.14
11,ACCTCACAAATGAATACACACAAACATATATATTTA [CACACA_site4976],10.2 ± 0.21
12,AAATATAAAAATAGCACACATATATACCTATATATA [CACACA_site4204],9.96 ± 0.11
13,GCATTGGGAATATATAGTACATATATATATATATAA [XGTACX_site2967],10.9 ± 0.78
14,GGATTGATAAGTGGTACACACATATATATTATATAT [CACACA_site2866],11.5 ± 1
15,AACCATTCAACTGATGCATGCATTTAACATATAAAT [TGCATGCA_site961],9.99 ± 0.14
16,TTTTTCTTTTTCTTTTTTTCTTTTTTTTTTTTTTTC [GTGCAC_negctrl_site727],9.77 ± 0.15
17,CAGACGCACGTATTTGCACACATTGCCACGTAATTA [CACACA_site3349],10.4 ± 0.2
18,AAACAAATATAATATTGTACATATATATATATATAT [XGTACX_site3105],10.9 ± 0.63
19,AAAAAAATTGGGAAAAGTACTTGCAGCTAGCTAAAA [XGTACX_site5178],11.1 ± 0.63
20,TTAAAAAAAATTTCAAGTACAAAGTAATATATATAT [XGTACX_site5718],10.9 ± 0.77
21,AATTATACATTATATTGTACATATGAATAATTAAAA [XGTACX_site6829],11 ± 0.68
22,TATATGTAATATATATGTACGTATAATATAATATTG [XGTACX_site8620],11.4 ± 0.92

row,Sequence,gcPBM binding intensity (ln)
1,CATATATATATATATTGTACACATTTTTTATAAAAA [XGTACX_site2526],11.4 ± 0.75
2,TATTTGCAATATAACACACACAAAAAAAGACTCGGA [CACACA_site6891],10.2 ± 0.15
3,AGAGAGAAAGCTATAACATGCAAAAATTTTTAGAAC [TGCATGCA_site420],9.785 ± 0.078
4,AGTGATAATTTAAAAAGTACAAATGAAATTTAGCTA [XGTACX_site3375],11.2 ± 0.65
5,TATATATAAAGCAGTACACACATTTATTTTAGATAC [CACACA_site3387],11.3 ± 0.69
6,ATACAAATAAAAAAAAAAATTATAAAATTATAAAAT [CACACA_negctrl_site914],9.43 ± 0.042
7,TTTCACATATATATGGTGCATATTTTATGTGTAAAT [GTGCAC_site9937],10 ± 0.18
8,GTGTGCAAAAATTGTTGTACATTATATATAAAAAAA [XGTACX_site3246],11.3 ± 0.9
9,TTTGTAACTTCTTTCACACATATATATATATATATA [CACACA_site5603],10.3 ± 0.42
10,CTATTATCGGTTCCTACACACAAATATAGATGTCTA [CACACA_site7651],10.3 ± 0.28
11,TATATAATACAAAAGGGTACATTAACATATTATATA [XGTACX_site3196],11.1 ± 0.72
12,TTTTATAATGTTGTAGTGCAAAATACGTATATTTAT [GTGCAC_site9826],10.5 ± 0.31
13,AATAAATATATGTACACACACAAATATATACATATC [CACACA_site1903],11.3 ± 0.63
14,AAAATATATATTAACACACACACAAAAAAAAAAAAA [CACACA_site1325],9.88 ± 0.49
15,AGATATAAGAAAAGCACACACACACCCAAAAAAAAA [CACACA_site2826],10.4 ± 0.38
16,GAAAATTATATGTGTTGTACACTTGCAACAACTATT [XGTACX_site3637],11.3 ± 0.78
17,CTATATTATTTTTCTTGTACGTAGGAAATATAGCTA [XGTACX_site6176],11.2 ± 0.76
18,ATATAAATATTTATTAGTACACATTAGTGTAGTTTT [XGTACX_site4493],11.5 ± 0.88
19,ACCGTGGGAAGACACACACACACACCCACATATATA [CACACA_site333],10.2 ± 0.2
20,TTTTATTCATTGAGCACACAAAATAAATTATCAAAA [CACACA_site3279],10.3 ± 0.32
21,AGTATATAATAATTTACACACAAAAAAATATCAGGA [CACACA_site3517],10.04 ± 0.021
22,TGATTTATCTATATTTTATAAGTTATTTATTTTTTT [CACACA_negctrl_site1603],9.245 ± 0.021

row,Sequence,gcPBM binding intensity (ln)
1,GGTGGCTAAATTACAACACACGACGGAATATTATAT [CACACA_site4114],10.05 ± 0.092
2,AATATATGGTTTCATTATATTAAATTCAATTTAATG [CACACA_negctrl_site675],9.86 ± 0.18
3,TTATTGTGTAAGATGATTTTCTTCGTCACTTTGAAA [CACACA_negctrl_site1814],9.685 ± 0.049
4,AAAAATGTATGTATGGTGCAGTATTCATATCATTTT [GTGCAC_site9458],10.03 ± 0.021
5,AAAATGAACAAACACACACACATATATATATATATA [CACACA_site2403],9.96 ± 0.35
6,ATATTCTTGTTTAATACACACTGTAGTATTATAGAT [CACACA_site6341],10.3 ± 0.33
7,TTTTTTAATATTTATTAATTAAACTTTGTTTTTGTT [XGTACX_negctrl_site454],9.38 ± 0.28
8,GACAAATAATAAAAGGTGCATTATACTTAACAAAAA [GTGCAC_site9624],10.1 ± 0.28
9,AAAAAACACTTAAGGTGTACCTTTTAATATAAGTAT [XGTACX_site2397],11.2 ± 0.64
10,TCTTGAAAAAGAATCAATCGGTCGACAAAAAAAAAA [CACACA_negctrl_site1099],10.4 ± 0.24
11,TACATTCGGAGTAAAAAAAAATTTATACAATTACTT [XGTACX_negctrl_site29],9.78 ± 0.014
12,AACCATAACTCATATGCACACATAAATATTACATAT [CACACA_site9273],10.17 ± 0.071
13,AAAGTATAAATAAATACACACATATATATATATATA [CACACA_site2892],10 ± 0.16
14,TGTGTATATAAATAATGTACATATATATTTTTTTAT [XGTACX_site7341],11.2 ± 0.67
15,GTAAAAAAAAAAAAAAGTACATTATACATATATTTA [XGTACX_site5447],11.3 ± 0.81
16,TCATACAATATTAAATGTACATATATATATATATAT [XGTACX_site8828],11.2 ± 0.61
17,ATATTAAAGCCTTTTTGTACATATAAATAAACATAG [XGTACX_site4667],10.9 ± 0.57
18,TATATATTATATATATGTACATAATTCCATGTTTAG [XGTACX_site3943],11.2 ± 0.81
19,AACTCTTAAAAATAAACATGCAAATATTTACCTTCT [TGCATGCA_site986],9.72 ± 0.12
20,ATTTTTTTTTTTTTTTTTCATTTTTTTTTTTTTTTT [CACACA_negctrl_site1204],10 ± 0.24
21,GTGTATTTGGTGCGCACACACATGCAAAAAGAAATA [CACACA_site4768],10.8 ± 0.61
22,TGTATAATCATATATACACACACATATATATATATA [CACACA_site8674],10.2 ± 0.41

row,Sequence,gcPBM binding intensity (ln)
1,TTATATAAAAAAAAATGTACATATAATTGGTAAATT [XGTACX_site5180],11.3 ± 0.76
2,TTTTTTTTCTTTTTTTTTTTTTCAAAAGCTTATAAT [CACACA_negctrl_site1526],9.82 ± 0.27
3,TTGAAAATAATATGAAGTACATTATTTTTTTTTAAT [XGTACX_site4499],11.1 ± 0.74
4,AAAAATATTTAAAATACACACATATATATAATATAT [CACACA_site2006],9.76 ± 0.13
5,TTATATTTATATATTTGTACGTATGTATATAATTCA [XGTACX_site2993],11.4 ± 0.97
6,ATTCTAATAATATATACACACACATATATATTTATA [CACACA_site8629],9.96 ± 0.12
7,CTTTTTTAAAATATTTAACACACAATTTTAATGCAT [CACACA_site9303],10.1 ± 0.21
8,AAAATTAGGAGACATGCATGTAACGATAAATATAAC [TGCATGCA_site148],10.14 ± 0.071
9,AAAAAATGAAAATATTCCAAAATAGAGGGAAATGTA [GTGCAC_negctrl_site572],9.66 ± 0.13
10,TATGTGATAACACGCACACAAATGTATTTAATTTAT [CACACA_site5435],9.995 ± 0.035
11,CACAAAAATGTAATCACACATATATATATATATATA [CACACA_site5818],10.5 ± 0.11
12,GTTACATACATATACACACACATATATATATATATA [CACACA_site901],10.06 ± 0.042
13,TAAATAATTCTTTTAGTACACACGAATAAGCAGATA [CACACA_site305],11.2 ± 0.87
14,TAAAAAAAATCATTCACACATATATGAAAAAAAAAA [CACACA_site5546],9.615 ± 0.092
15,TAGATACCTATAGAAACATGCAATTGAATATATTTC [TGCATGCA_site402],9.745 ± 0.007
16,TTCTTACACGTTTGCACACTAAAATATATATATATA [CACACA_site434],10.3 ± 0.25
17,TAATTTTTATTCAAGAGTACACAAAAGATAACTAAA [XGTACX_site4060],11.4 ± 0.86
18,AGGCTGCCATATTATACACACATTTTTAAAAAAATT [CACACA_site3843],10.1 ± 0.13
19,TAAAAATTTACATGTTGTACATATAATTATATAATC [XGTACX_site4577],11.1 ± 0.63
20,AAATATTACCATGTGAAAATTTTACTGCAACATGAA [TGCATGCA_negctrl_site609],10.1 ± 0.11
21,AAAATGAACTCACGAGCACACACACCCATATATATA [CACACA_site8247],10.3 ± 0.25
22,TGTATTATATAAAATTGTACATGCGAATTGTATAAC [XGTACX_site902],10.8 ± 0.58
